Results from the supplement of paper PMC3334620.
In all, about 33,000 sequences were measured (“E-score (-0.5 to 0.5)”: median about -0.053, highest 2% from about 0.37 on). Some of the results follow.

Target: Hap1 (UniProt P0CE41)
Assay: PBM E-score (8-mer binding enrichment) (E-score (-0.5 to 0.5)); higher = stronger / more preferred TF binding; most listed sequences are background and not binding sites
Conditions: protein concentration: 200 nM; construct: GST-DNA-binding domain
Outline: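 Bound GST-tagged yeast transcription factors, applied at about 100-200 nM to double-stranded universal all-10-mer Agilent arrays, were detected with fluorescent anti-GST. Scans were normalised with masliner. A modified Wilcoxon-Mann-Whitney statistic, the E-score, was assigned to each ungapped eight-base word pooled with its reverse complement by the Universal PBM Analysis Suite.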

Sequence of UniProt P0CE41 (P0CE41 whole entry): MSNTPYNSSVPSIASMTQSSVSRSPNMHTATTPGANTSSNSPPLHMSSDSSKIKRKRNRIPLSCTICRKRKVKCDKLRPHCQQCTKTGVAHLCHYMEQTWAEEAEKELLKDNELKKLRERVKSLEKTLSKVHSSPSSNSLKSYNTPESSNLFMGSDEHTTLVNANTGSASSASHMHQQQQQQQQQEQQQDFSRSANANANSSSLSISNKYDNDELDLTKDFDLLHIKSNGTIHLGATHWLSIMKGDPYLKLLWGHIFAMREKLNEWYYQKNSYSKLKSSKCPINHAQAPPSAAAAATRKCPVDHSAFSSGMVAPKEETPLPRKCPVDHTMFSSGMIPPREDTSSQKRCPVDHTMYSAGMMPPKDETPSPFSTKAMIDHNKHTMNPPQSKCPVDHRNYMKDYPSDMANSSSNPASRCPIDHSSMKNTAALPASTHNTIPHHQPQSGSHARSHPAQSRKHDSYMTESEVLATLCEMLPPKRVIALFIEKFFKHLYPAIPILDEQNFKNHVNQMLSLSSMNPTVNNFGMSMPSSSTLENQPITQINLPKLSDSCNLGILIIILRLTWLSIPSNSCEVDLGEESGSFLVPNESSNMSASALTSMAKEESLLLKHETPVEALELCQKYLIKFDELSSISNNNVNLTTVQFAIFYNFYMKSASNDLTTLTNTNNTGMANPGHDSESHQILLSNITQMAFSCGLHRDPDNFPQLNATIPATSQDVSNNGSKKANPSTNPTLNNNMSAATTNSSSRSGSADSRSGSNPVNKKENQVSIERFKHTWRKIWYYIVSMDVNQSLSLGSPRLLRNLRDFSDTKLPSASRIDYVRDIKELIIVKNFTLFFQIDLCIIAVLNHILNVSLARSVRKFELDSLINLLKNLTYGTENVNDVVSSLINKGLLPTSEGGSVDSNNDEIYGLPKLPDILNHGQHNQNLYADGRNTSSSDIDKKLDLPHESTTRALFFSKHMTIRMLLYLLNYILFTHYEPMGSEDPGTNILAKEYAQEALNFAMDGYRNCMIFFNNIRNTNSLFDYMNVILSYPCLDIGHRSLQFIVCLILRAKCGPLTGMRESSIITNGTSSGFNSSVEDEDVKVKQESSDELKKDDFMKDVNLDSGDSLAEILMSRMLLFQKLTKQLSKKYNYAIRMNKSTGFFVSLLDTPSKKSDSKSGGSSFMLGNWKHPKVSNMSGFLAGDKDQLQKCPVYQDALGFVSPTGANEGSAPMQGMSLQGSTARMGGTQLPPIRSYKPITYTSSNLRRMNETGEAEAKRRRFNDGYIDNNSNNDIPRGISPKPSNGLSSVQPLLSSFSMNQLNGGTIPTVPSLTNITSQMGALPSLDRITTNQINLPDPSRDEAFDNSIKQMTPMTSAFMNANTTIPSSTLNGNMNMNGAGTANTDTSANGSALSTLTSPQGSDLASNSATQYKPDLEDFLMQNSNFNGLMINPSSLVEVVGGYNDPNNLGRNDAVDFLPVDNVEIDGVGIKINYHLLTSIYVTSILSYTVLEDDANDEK

Sequence	PBM E-score
AGGACTAT	-0.0986
CCAACGCG	0.0685
AACGCCAT	-0.145
ATGACCAT	-0.121
CACGAAGG	-0.0928
CTGCATGA	-0.298
AACGACGT	-0.146
GGAACCGA	0.27
AGTATATG	-0.0866
CATTGACA	-0.213
CCCTCGTA	-0.0221
CGCCCGGC	0.335
AGGGCGTG	0.0258
GGAGTACC	0.00594
ATGAAATC	-0.111
ACACCCGA	0.305
GCTGAACC	0.0337
AAGATTCC	0.0921
CCCCCTAC	-0.202
CCAATGAA	-0.225
CGTGTATC	0.0108
ACCACTGA	-0.312
ATATAGTC	0.0135
AGAATCCT	-0.18
TAGTGTCA	-0.227

Sequence	PBM E-score
AGCTTCAA	-0.161
TCCCGGAA	0.397
AAGACAGC	-0.01
ATTTTAAC	0.0876
ATTCACCC	0.217
CTCGTTTC	-0.00994
CCGTAATA	0.251
CGAGGCAC	0.0885
CGAGAGAA	0.0838
GGAATTAC	0.375
CGCTCTCA	-0.205
AATAGGAT	0.0961
TACGTTGA	-0.223
GAGGTTGC	0.00013
AGAACTCC	0.0259
GTGGGGTA	0.211
ACTCGTTG	-0.304
TGTTCGAA	-0.209
AACATGAA	-0.0851
GAAATCGA	0.137
CCCTTCGA	-0.0916
ATGACGGG	0.134
ATTACATG	0.0369
CATGGAAG	-0.0163
AAGCAATC	-0.154

Sequence	PBM E-score
AAAGTAGC	-0.0475
ACTCTGTA	-0.282
GTTCGAAA	-0.0341
AAGTTTTA	-0.0495
ATAGGTTC	-0.066
AACCCCCT	-0.362
CGTTATCA	0.105
CTTATGAA	-0.129
TACAGTAA	-0.29
CATCTCCG	0.435
CCCACTCC	0.00898
AAGCCACA	-0.232
ATTCTTCC	0.104
GCACACCA	-0.063
CCGCCATA	0.257
ATGTCTGC	0.101
AACGACCC	0.00262
GCACTATA	-0.136
TCGCGTCA	-0.0875
CCCGGAGC	0.354
GTCCATTA	0.0161
CCGATAAA	0.461
CACAGACA	-0.186
CTCCTAAG	-0.0623
GGGTGATA	0.167

Sequence	PBM E-score
AGGGGCCG	-0.0311
ATGCATTG	-0.194
CGCGATAA	0.115
CAGATGGA	-0.0278
ACTACACA	-0.0805
AACAGGTC	-0.267
ATGAAAAC	0.057
TGACAGAA	-0.247
GATATACA	0.208
AGAGTCCG	0.288
AGAGTTCC	0.0898
ACCTTGTC	-0.242
ACTCCGTG	0.292
AAACTGGG	-0.122
CTATGCCC	0.0184
ATTACGCA	0.123
CGAGGTCC	0.273
AAACCTCT	0.0165
ATTCCATG	0.134
GACCATCC	0.024
AGCACTAA	-0.168
AGGTAGGC	-0.0915
CACGTCGA	-0.183
CATTGAGG	-0.206
CCTTGGTA	-0.0146

Sequence	PBM E-score
AGTTCTCC	0.0689
CTAAATCC	0.386
GCTTGTAA	-0.0451
ATCCATGG	-0.00375
CGGGATTC	0.292
AACGCTAA	-0.301
CTTTGGTC	0.102
ATGTTTCA	-0.21
GAAGGGAC	-0.136
AAGACCAT	-0.167
CCGGGACC	0.35
CGTATATA	-0.0266
CTCACAAG	-0.217
GAGATCAA	0.0281
AAGCTGAT	0.0128
CCTATAGA	-0.198
CCCCGAAG	0.311
ACAAGTAC	-0.0629
CACAGCAC	-0.143
GGCTACAC	-0.292
AATTTTCG	0.153
AGGACAAG	-0.191
GGATCAAA	0.0717
AAAGACGA	-0.199
GGATCGCC	0.0272

Sequence	PBM E-score
GACAGGTA	-0.0971
AGGGAGAG	-0.332
ACATCGGT	0.332
AAGAGCAA	-0.111
CCCATAGA	-0.244
CGCTAAAA	0.0758
GTGCGCAC	0.197
ACCGCCAG	0.0985
AAGTGACG	0.0634
GAAAGTAA	-0.014
CTTGACCC	-0.0231
AGATCAGG	-0.113
GTTCTATA	-0.15
CTTCATGC	-0.0499
AGCGTCAC	-0.0748
AATGACAT	-0.0522
TAAAGTAA	-0.194
ACCTCAAG	-0.18
CATTGAAC	-0.0972
GATATTCC	0.241
GGCGCGTA	0.0722
CCCCCCTA	-0.167
CGCATATA	0.0759
TATGCACA	-0.144
TGGGATAA	-0.0448

Sequence	PBM E-score
ACTTTACC	0.00924
TCCTAGGA	-0.187
ATGATTCC	0.0894
GAGTCGAA	-0.00726
CTTCAGGA	-0.0903
AGTCAAAA	-0.176
CCAGCATA	-0.259
ACACTTCA	-0.0611
CCTGATAG	-0.208
ATCGGTCC	0.374
AGAGCTCG	0.0657
AGGCTTGC	-0.169
GTCTCGGA	0.358
CTGCGGAC	0.321
CTAGTTAA	-0.183
AACTCGGC	0.316
GGGTCCAC	0.046
ACTGCAGA	-0.18
ACCACAGC	-0.127
CTGGAAAA	-0.119
TACTAAGA	0.0084
CGACAGAG	-0.102
AAGACTGG	-0.0967
CGAGTCCG	0.345
CCTCGTCG	0.145

Sequence	PBM E-score
CAGGGGTC	-0.213
TGGAGCCA	-0.23
AGATAGGC	-0.0855
AGCACGGG	0.0369
CATACCTA	-0.117
ACGTGCCG	-0.0134
CAATAGAG	-0.152
GGAGCAGA	0.0389
AGAAGGTC	-0.212
GAGGTGGA	0.0581
GCCGAGGA	0.294
ACCGAAGG	0.285
CGCGTAGA	0.0333
AGAAGTAT	-0.0923
TCGTGACA	-0.0639
CCCCCGGG	0.324
ACCCTTCA	-0.115
CCTTATAG	-0.163
TAGATTGA	0.0635
CCATATCG	0.318
ACTAAGCC	0.094
GAAACAGA	-0.119
TACCCACA	-0.0535
TCTCCCCA	-0.00501
ATGCCGGA	0.4

Sequence	PBM E-score
GGCCGGTA	0.344
TAAGGGTA	-0.165
CAATAACC	0.114
AACTACTT	-0.158
CAAGCGGG	0.191
GGGGTCAC	-0.116
AGAAATTA	0.0509
AGAGGAGA	-0.242
CAACGAAC	-0.0321
CTGCCGGC	0.322
GTGGAACA	-0.0504
CTACCTAC	-0.0262
CACAGGTA	-0.309
ATTTCCGG	0.459
ATCTTCAG	-0.0499
GTGTGGCA	-0.107
AAATTGGT	0.117
CACCTTGG	-0.0199
CTGCCGGA	0.286
